PubChem BioAssay AID720542 (National Center for Advancing Translational Sciences (NCATS), 2013)
Out of some 360,000 compounds screened, about 740 (0.21%) were called active. The inconclusive results got no clear call from the source; some entries with a clear call stand among them for comparison. The call rests on the fitted dose curve; in most records, active means well fitted inhibition curve with a large enough effect; inconclusive means small, poorly fitted or top-dose-only effect; inactive means no such curve, though single readings can be large or run the other way. Potencies of inconclusive entries are left out as doubtful fits.

Tested on: Plasmodium falciparum AMA1 (3D7) - RON2 peptide interaction
Test: qHTS for Inhibitors of AMA1-RON; Towards Development of Antimalarial Drug Lead: Primary Screen; further: nearly all actives have a fitted effect of over 45% in size
Conditions: AlphaScreen AMA1-biotinylated RON2 peptide binding; series mostly up to 58.2 µM
Outline: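 AMA1 (3D7) with his tag at 25 nM final met compounds first, then biotinylated RON2 peptide at 25 nM; detection used donor plus acceptor beads, 10 µg/mL apiece, read by AlphaScreen after 30 min at room temperature.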
Potency means the concentration at half of the fitted maximal effect; tags describe the fitted curve by direction and shape.

Row | SMILES | Potency
1 | O=C(O)c1ccc(Oc2ccc([N+](=O)[O-])cc2)c([N+](=O)[O-])c1 | inactive
2 | CC(=O)NC(c1cccc([N+](=O)[O-])c1)c1ccc2cccnc2c1O (configuration not stated) | inactive
3 | O=C(NN=C1CCCC1)c1cccs1 | inactive
4 | Nc1nnc(N2CCc3ccccc32)s1 | inactive
5 | COC1=CC(=NCl)C=CC1=NCl | inconclusive [inhibitor, full curve]
6 | c1ccc2c(NCCc3c[nH]c4ccccc34)c3ccccc3nc2c1 | inconclusive [inhibitor, partial curve]
7 | Cc1cc(C)cc(NC(=O)CSc2nnc(-c3ccc(S(=O)(=O)N4CCCC4)cc3)o2)c1 | inactive
8 | CC1CN(CCOCCSc2ccc(Cl)cc2)CC(C)O1 (configuration not stated) | inconclusive [inhibitor, partial curve]
9 | Cn1cnc([N+](=O)[O-])c1S(=O)(=O)Oc1ccc(Cl)cc1 | inactive
10 | CC(NCC(=O)NC(=O)NCCC1=CCCCC1)c1ccc(S(N)(=O)=O)cc1 (configuration not stated) | inconclusive [inhibitor, single point]
11 | CN1c2ccccc2C(C)(C)C12C=Cc1cc(O)ccc1O2 (configuration not stated) | inconclusive [inhibitor, single point]
12 | CN1CCN(c2ccc(NC(=O)c3ccc(-c4ccc(Br)cc4)o3)cc2)CC1 | inconclusive [inhibitor, partial curve]
13 | COc1ccc(N=C2c3ccccc3-c3ccc([N+](=O)[O-])cc32)cc1 | inconclusive [inhibitor, full curve]
14 | CC(=O)Nc1ccc(/C=C/c2ccc3cccc([N+](=O)[O-])c3n2)cc1 | inactive
15 | O=C(c1ccco1)N1CCN(c2nc(C3CC3)nc3sc4c(c23)CCCC4)CC1 | inconclusive [inhibitor, single point]
16 | CCOC(=O)N1CCN(S(=O)(=O)c2ccc(C(=O)N(CCCN(C)C)c3nc4c(C)c(C)ccc4s3)cc2)CC1 | inconclusive [inhibitor, single point]
17 | CN1CCN(C(=O)C2CCCN(S(=O)(=O)c3ccc(F)cc3)C2)CC1 (configuration not stated) | inconclusive [inhibitor, partial curve]
18 | COc1ccc([C@H]2CC(=O)C=C(c3cccc(Br)c3)C2)cc1OC | inconclusive [inhibitor, partial curve]
19 | O=C(Nc1nc2c(s1)CN(Cc1ccccc1)CC2)C1CCCC1 | inconclusive [inhibitor, single point]
20 | CC(=O)c1ccc(NCC2COc3ccccc3O2)c([N+](=O)[O-])c1 (configuration not stated) | inconclusive [inhibitor, partial curve]
21 | COc1ccc(CC(=O)Nc2nc(-c3cc(OC)ccc3OC)cs2)cc1 | inconclusive [inhibitor, partial curve]
22 | CC(OC(=O)c1ccccc1NCCO)C(=O)Nc1ccnn1C(C)C (configuration not stated) | inconclusive [inhibitor, partial curve]
23 | COc1ccc(C(=O)C2CCCN(C3CSCCSC3)C2)c(C)c1 (configuration not stated) | inconclusive [inhibitor, single point]

Row | SMILES | Potency
24 | Cc1ccc(CC2C(=O)N(c3nc(C)cc(C)n3)C(=O)C2C)cc1 (configuration not stated) | inactive
25 | CCOc1ccccc1N1CCN(Cc2ccco2)CC1 | inconclusive [inhibitor, single point]
26 | COc1ccc(OC)c(-c2cc(C(=O)NCc3ccco3)no2)c1 | inconclusive [inhibitor, single point]
27 | C/C(=N/N1CCN(Cc2cccc3ccccc23)CC1)c1ccco1 | inconclusive [inhibitor, single point]
28 | COc1ccccc1N1N=C(c2ccc([N+](=O)[O-])cc2)CC1c1ccccc1 (configuration not stated) | inconclusive [inhibitor, single point]
29 | O=C(O)CCCNS(=O)(=O)c1ccc(F)cc1 | inconclusive [inhibitor, partial curve, poor fit]
30 | Clc1cc(Cl)c(OCCCCn2cncn2)c(Cl)c1 | inconclusive [inhibitor, single point]
31 | O=C1c2ccccc2C(=O)N1CCCC(=O)N1CCc2ccccc21 | inconclusive [inhibitor, single point]
32 | CSc1ccc2c(c1)N(CCC1CCCCN1C)c1ccccc1S2 (configuration not stated) | inconclusive [inhibitor, single point]
33 | COc1ccc(NC(=O)COC(=O)CC2CC3CCC2C3)c([N+](=O)[O-])c1 (configuration not stated) | inconclusive [inhibitor, full curve, poor fit]
34 | CCOC(=O)c1c(N)sc2c1CCC(C)C2 (configuration not stated) | inactive
35 | COc1ccc(CCNC(=O)c2sc3ccccc3c2Cl)cc1OC | inconclusive [inhibitor, partial curve]
36 | COC(=O)C1=C(C)N(Cc2ccc(OC)cc2)C(=O)/C1=C\c1ccco1 | inconclusive [inhibitor, single point]
37 | c1ccc(CN2CCN(Cc3ccc4ccccc4c3)CC2)cc1 | inconclusive [inhibitor, partial curve]
38 | COc1ccccc1/C=N\Nc1ccccc1[N+](=O)[O-] | inconclusive [inhibitor, full curve]
39 | CCN(CC)c1ccc(/C=N/OC(C)C(=O)Nc2ccc(C)cc2)cc1 (configuration not stated) | inconclusive [inhibitor, partial curve]
40 | COC(=O)C1=C(C(=O)OC)SC(=C2C(=S)C(C)(C)N(C(=O)CC(C)C)c3ccccc32)S1 | inconclusive [inhibitor, partial curve]
41 | COc1cc2c(cc1NC(=S)NC(=O)c1c(OC)cccc1OC)oc1ccccc12 | inactive
42 | CCN(CC)c1ccc(NC(=O)c2ccc(Br)o2)cc1 | inconclusive [inhibitor, partial curve]
43 | CCCC(=O)Nc1ccc2c(c1)c1ccccc1n2CC | inactive
44 | CCN(Cc1ccccc1)S(=O)(=O)c1ccc(C(=O)N(CCCN(C)C)c2nc3cc(OC)ccc3s2)cc1 | inconclusive [inhibitor, single point]
45 | Cc1ccc(S(=O)(=O)N(C)c2ccc(C(=O)N3CCc4ccccc4C3)cc2)cc1 | inactive
46 | CCCCOC(=O)Nc1ccc(N2CCCCC2)cc1 | inconclusive [inhibitor, partial curve]

Row | SMILES | Potency
47 | O=[N+]([O-])c1ccccc1N/N=C/c1c[nH]c2ccccc12 | inconclusive [inhibitor, partial curve]
48 | O=C(C1CCN(S(=O)(=O)N2CCOCC2)CC1)N1CCN(c2ccc(F)cc2)CC1 | inconclusive [inhibitor, full curve, poor fit]
49 | O=[N+]([O-])c1ccc(CN2CCN(c3ccc(Cl)cc3)CC2)o1 | inconclusive [inhibitor, single point]
50 | Cc1cc(S(=O)(=O)Nc2ccc(C(=O)NCCN3CCOCC3)cc2)ccc1F | inactive
51 | COc1ccc(CCNc2ncnc3cc(OC)c(OC)cc23)cc1OC | inactive
52 | COCc1ccc(CN2CCC(C(=O)Nc3cccc(-c4cccc(Cl)c4)c3)CC2)o1 | inconclusive [inhibitor, partial curve, poor fit]
53 | Cc1cccc2sc(NC(=O)C3CCN(S(=O)(=O)c4cc([N+](=O)[O-])ccc4Cl)CC3)nc12 | inconclusive [inhibitor, partial curve]
54 | c1ccc2sc(NC3=NCN(Cc4ccc5c(c4)OCO5)CN3)nc2c1 | inactive
55 | COCCN1Cc2cc3cc(C)ccc3nc2SC1=Nc1ccc(OC)cc1 | inconclusive [inhibitor, single point]
56 | COc1ccc(CC(=O)N2N=C(c3ccncc3)CC2(O)C(F)(F)F)cc1 (configuration not stated) | inactive
57 | C#CCOCCOCCOCCNc1nc(N2CCN(C(=O)CCCCCCCCCCNC(=O)[C@H]([C@@H](C)CC)n3cc(CCCCN=C(N)N)nn3)CC2)nc(N2CCN(C(=O)CCCCCCCCCCNC(=O)[C@@H]([C@H](C)O)n3cc(C)nn3)CC2)n1 | inconclusive [inhibitor, single point]
58 | COc1ccc(Cn2nnnc2C(c2ccccn2)N2CCN(c3cc(Cl)ccc3C)CC2)cc1 (configuration not stated) | inconclusive [inhibitor, partial curve]
59 | CSC1=NP(=S)(SC)N2CCCC2=C1C#N (configuration not stated) | inconclusive [inhibitor, single point]
60 | Oc1ccccc1-c1nnc(SCCN2CCOCC2)n1Cc1ccccc1 | inconclusive [inhibitor, full curve]
61 | COc1ccc(-c2sc3cc(OC)c(OC)cc3c2-c2ccc(O)cc2)cc1 | inconclusive [inhibitor, partial curve]
62 | c1ccc(-n2ncc3c(NCc4ccco4)ncnc32)cc1 | inconclusive [inhibitor, partial curve]
63 | CCN1CCN(Cc2c(O)ccc3c2O/C(=C\c2ccccc2)C3=O)CC1 | inconclusive [inhibitor, single point]
64 | Cc1ccsc1/C=N/N1CCN(c2ccccn2)CC1 | inconclusive [inhibitor, partial curve]
65 | CC(=O)c1ccccc1OCC(O)CN1CCN(C(c2ccccc2)c2ccccc2)CC1 (configuration not stated) | inactive
66 | Oc1ccc(/C=N/NC(=S)NC2CC3CCC2C3)cc1 (configuration not stated) | inactive
67 | O=[N+]([O-])C(=C1SCCS1)C(=C(Cl)Cl)N1CCCCC1 | inconclusive [inhibitor, partial curve]
